Out of some 410,000 compounds screened, about 490 (0.12%) were called active. The shares of active, inactive and inconclusive entries below differ from those in the screen. Calls come from the whole dose curve; as a rule, active = well fitted inhibition curve with a large enough effect; inconclusive = small, poorly fitted or top-dose-only effect; inactive = flat fitted curve, though single readings scatter. Where the call is inconclusive, the potency comes from a doubtful curve fit.
Target: pyruvate kinase (Trypanosoma brucei) (UniProt Q57TT1)
Test: qHTS of Trypanosoma Brucei Inhibitors; note: nearly all actives have a fitted effect of over 50% in size
Details: TbPYK enzyme, Kinase-Glo Plus ATP luminescence, 45 min; series mostly up to 76.8 µM; activity, negative = inhibition: at the top concentration
Procedure, shortened: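 Readout: single end-point luminescence (Kinase-Glo Plus, 10 min). Reaction conditions were TbPYK/substrate plus 130 uM ADP, 45 min at RT, pH 7.2 TEA buffer. No-enzyme wells served as controls, and data were normalized before concentration-response fitting.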
% is set by controls: 0 for no effect and ±100 for the full control effect; potency is the fitted concentration of half-maximal effect; tags give direction and shape of the fitted curve.

SMILES	Potency	activity, negative = inhibition
COc1ccc(C2CC(=O)N3CN(C4CCCCC4)CSC3=C2C#N)cc1 (stereo not drawn)	active: 22.4 µM	–
COC(=O)c1ccccc1NC(=O)Nc1cccc(C)n1	–	inactive: 4.4%
Cc1ccc(-c2nnc(SCC(=O)N3CCCC3)o2)cc1C	–	inactive: -7.65%
N#Cc1c(C#N)c(O)c2ccccc2c1O	inconclusive: 14.1 µM [inhibitor, partial curve]	–
COc1cc(CNn2c(C)n[nH]c2=S)cc(Cl)c1OCC(=O)NC(C)(C)C	inconclusive: 15.8 µM [inhibitor, partial curve, poor fit]	–
COc1ccc(-c2nnc(SCC(=O)NCC3CCCO3)n2C)cc1 (stereo not drawn)	–	inactive: 1.36%
Cc1cc(-c2cc(-c3ccc(Cl)cc3)nc(N)c2C#N)co1	inconclusive: 28.2 µM [inhibitor, partial curve]	–
Cn1nc(-c2ccccc2)cc1NC(=O)C1CCCCC1	–	inactive: 1.23%
CN1CCc2nc3sc(C#N)c(N)c3c(-c3cccs3)c2C1	inconclusive: 31.6 µM [inhibitor, single point]	–
CCCCNc1nc2ccccc2n1CC(=O)N1CCc2ccccc2C1	inconclusive: 3.98 µM [inhibitor, partial curve, poor fit]	–
CCOc1ccc(/C=N/n2c(C3CCCCC3)n[nH]c2=S)cc1	inconclusive: 31.6 µM [inhibitor, partial curve, poor fit]	–
Cc1c(Cl)cccc1NC(=O)CCN1C(=O)C2CC=CCC2C1=O (stereo not drawn)	–	inactive: -9.09%
Cc1ccc(-c2cc(C(=O)Nc3cccnc3)c3ccccc3n2)o1	inconclusive: 31.6 µM [inhibitor, partial curve, poor fit]	–
c1ccc(-c2nc(-c3ccccn3)no2)cc1	inconclusive: 31.6 µM [inhibitor, partial curve, poor fit]	–
CC1=NN(c2ccccc2)C(=O)/C1=C\c1ccc(Oc2ccc([N+](=O)[O-])cc2[N+](=O)[O-])cc1	–	inactive: -2.84%
O=S(=O)(c1cccc(-c2n[nH]c(=S)n2-c2ccccc2Cl)c1)N1CCOCC1	inconclusive: 5.62 µM [inhibitor, partial curve]	–
CCNC(=S)NC(=NCc1cccnc1)Nc1nc(C)cc(C)n1	inconclusive: 31.6 µM [inhibitor, partial curve, poor fit]	–
Cc1ccc(-c2n[nH]c(=S)c3ccccc23)cc1	inconclusive: 14.1 µM [inhibitor, partial curve, poor fit]	–
O=C(/C=C/c1ccnc2ccccc12)c1cccs1	inconclusive: 28.2 µM [inhibitor, single point]	–
COc1ccc2[nH]c3c(=O)n(CCCCC(=O)N4CCCC4)c(=S)[nH]c3c2c1	inconclusive: 3.16 µM [inhibitor, full curve, poor fit]	–
CCOc1cc(C=C2C(=O)NC(=O)NC2=O)ccc1OCC(=O)N1CCOCC1	inconclusive: 50.1 µM [inhibitor, single point]	–
COCc1c(C(=O)N2CCN(Cc3nc4ccccc4s3)CC2)oc2ccccc12	inconclusive: 39.8 µM [inhibitor, single point]	–
COc1cccc(/C=N/n2c(-c3cccs3)n[nH]c2=S)c1	inconclusive: 17.8 µM [inhibitor, partial curve, poor fit]	–

SMILES	Potency	activity, negative = inhibition
CCOc1ccc(OCCn2c(=S)[nH]c3ccccc32)cc1	inconclusive: 0.794 µM [inhibitor, full curve, poor fit]	–
Cc1cccc(NC(=O)Nc2cccc(C#N)c2)n1	–	inactive: 2.54%
Cc1ccc(NS(=O)(=O)c2ccc(-c3coc(C)n3)cc2)c(Br)c1	–	inactive: 2.67%
CCOC(=O)c1c(NC(=O)C(C)Sc2cn(CCNC(=O)c3ccc(OC)cc3)c3ccccc23)sc2c1CCC2 (stereo not drawn)	–	inactive: 2.62%
CCC(=O)N1Cc2cc(C(=O)Nc3nccs3)nc(-c3cccc(-c4ccccc4OC)c3)c2[C@H]1CCO	inconclusive: 25.1 µM [inhibitor, partial curve, poor fit]	–
Cc1cc(C)c2c(=O)n(CC(=O)Nc3cccc(F)c3)sc2n1	inconclusive: 5.01 µM [inhibitor, full curve, poor fit]	–
Cc1cc(-c2ccccc2)nc(N/N=C/c2ccco2)n1	inconclusive: 1.78 µM [inhibitor, full curve]	–
CCn1c(-c2ccc([N+](=O)[O-])cc2)n[nH]c1=S	inconclusive: 14.1 µM [inhibitor, partial curve, poor fit]	–
O=C(COC(=O)/C=C/c1cccc(Br)c1)NC1CCCC1	–	inactive: 3.12%
Cc1cccc(-n2c(N)c(C(=O)N3CCN(C)CC3)sc2=S)c1	inconclusive: 14.1 µM [inhibitor, partial curve, poor fit]	–
Cn1c(-c2cc(Br)ccc2O)n[nH]c1=S	inconclusive: 50.1 µM [inhibitor, single point]	–
c1ccc(-c2nc(N3CCOCC3)s[n+]2-c2ccccc2)cc1	active: 2.51 µM	–
COc1ccc(S(=O)(=O)N(CC(=O)Nc2cc(Cl)ccc2C)Cc2ccccc2)cc1OC	–	inactive: 2.44%
Cn1c(=O)c(=O)n(C)c2cc(N3CCOCC3)c(NS(=O)(=O)c3ccc(Br)cc3)cc21	–	inactive: -11.9%
CC(=NNC(=S)Nc1ccc(C)cc1)c1ccccn1	–	inactive: -19.4%
COC(=O)C1=C(c2cccc(C#N)c2)C[C@@H]2CC[C@H]1N2C(=O)NCCc1ccccc1	inconclusive: 35.5 µM [inhibitor, partial curve]	–
CC(=O)c1ccc(-n2c(-c3cc(-c4ccsc4)n[nH]3)n[nH]c2=S)cc1	inconclusive: 2.51 µM [inhibitor, full curve]	–
O=C(NCc1n[nH]c(=S)n1-c1cccc(C(F)(F)F)c1)c1ccco1	inconclusive: 31.6 µM [inhibitor, partial curve, poor fit]	–
COC(=O)c1ccc2nc(-c3ccco3)c(Cc3ccc(C)cc3)n2c1	inconclusive: 28.2 µM [inhibitor, partial curve]	–
COc1ccc(NC(=O)CCc2nc3c(C)nn(-c4ccc(C)cc4)c3n(C)c2=O)cc1	–	inactive: -3%
CCc1ccccc1NC(=O)CN1CCCN(Cc2cc(C)ccc2C)S1(=O)=O	–	inactive: -3.97% [at 15.4 µM]
O=C1CSC(=S)N1N=Cc1ccccc1O	inconclusive: 31.6 µM [inhibitor, partial curve, poor fit]	–
CC(=O)c1c(C)[nH]c(C(=O)OC(C)C(=O)Nc2ccc(C)c(S(=O)(=O)N3CCOCC3)c2)c1C (stereo not drawn)	inconclusive: 50.1 µM [inhibitor, single point]	–

SMILES	Potency	activity, negative = inhibition
C/C=C\C=C\C(=O)Nc1cccc(C2=NOC3(C2)C[C@@H](C(N)=O)N(C(=O)C(c2ccccc2)c2ccccc2)C3)c1 (stereo partly drawn)	–	inactive: -7.76%
CNc1ncnc2c1ncn2[C@H]1CN(Cc2cccc3ccccc23)C[C@@H](CO)O1	–	inactive: 0.413%
Fc1ccc(-c2csc(=S)[nH]2)cc1	inconclusive: 11.2 µM [inhibitor, partial curve]	–
COc1ccc(NC(=O)c2sc(=S)[nH]c2N)cc1	inconclusive: 25.1 µM [inhibitor, partial curve]	–
FC(F)(F)c1ccc(Cl)c(-n2c(-c3cc(C4CC4)[nH]n3)n[nH]c2=S)c1	inconclusive: 3.16 µM [inhibitor, partial curve, poor fit]	–
CC(NC(=O)CCn1c(=S)[nH]c2ccsc2c1=O)c1ccccc1 (stereo not drawn)	inconclusive: 39.8 µM [inhibitor, partial curve, poor fit]	–
N#Cc1c(Nc2ccccc2C(F)(F)F)s[nH]c1=O	inconclusive: 25.1 µM [inhibitor, single point]	–
Cc1ccc(-n2cc(C(C)(C)C)[nH]c2=S)cc1	inconclusive: 2.24 µM [inhibitor, full curve, poor fit]	–
COc1ccc(-n2c(COc3cccc(C)c3)n[nH]c2=S)cc1	inconclusive: 6.31 µM [inhibitor, partial curve, poor fit]	–
CCN(CC)CCNC(=O)c1cn(CCOC)c(=O)c2c1c1ccccc1n2C	inconclusive: 50.1 µM [inhibitor, single point]	–
c1ccc(SSc2ccccn2)nc1	inconclusive: 25.1 µM [inhibitor, partial curve]	–
O=C(N/N=C/c1ccc(-c2cccc(C(F)(F)F)c2)o1)c1ccccc1Br	–	inactive: 2.37%
S=c1[nH]nc(-c2ccco2)n1-c1cccc2ccccc12	active: 2.82 µM	–
O=C(Nc1sc2c(c1C(=O)Nc1cccc(Cl)c1)CCCC2)c1cccs1	inconclusive: 8.91 µM [inhibitor, partial curve, poor fit]	–
CCCn1c(=S)[nH]c2cc(Cl)ccc21	inconclusive: 50.1 µM [inhibitor, single point]	–
Cc1cc(NC(=O)CSc2ccc3nnc(-c4ccc(Cl)cc4)n3n2)no1	inconclusive: 39.8 µM [inhibitor, single point]	–
CCCCn1c(SCC(=O)NCc2cccs2)nc2c1c(=O)n(C)c(=O)n2C	inconclusive: 0.794 µM [inhibitor, full curve, poor fit]	–
Oc1ccccc1-c1n[nH]c(=S)n1Cc1ccco1	inconclusive: 7.08 µM [inhibitor, partial curve]	–
C=CCn1c(Cc2nc3ccccc3[nH]2)n[nH]c1=S	inconclusive: 14.1 µM [inhibitor, partial curve, poor fit]	–
O=C(COC(=O)c1ccccn1)Nc1nc(-c2ccccc2)cs1	–	inactive: 3.53%
Cc1cccc(NS(=O)(=O)c2ccc(C)c(C(=O)N(C)C3CCN(C)CC3)c2)c1	–	inactive: -7.36%
CC(=O)N(c1ccc(N(C(C)=O)S(=O)(=O)c2cccs2)cc1)S(=O)(=O)c1cccs1	inconclusive: 28.2 µM [inhibitor, partial curve, poor fit]	–

From PubChem BioAssay AID624173 (National Center for Advancing Translational Sciences (NCATS), 2012)
